From the supplement of paper PMC12217912
Some of the results follow. The full chains were built here from the parent and the listed change. Values near 0.05 are background.

B1: TEV protease; numbered along this chain (parent)
chain: MGESLFKGPRDYNPISSSICHLTNESDGHTTSLYGIGFGPFIITNKHLFRRNNGTLVVQSLHGVFKVKDTTTLQQHLVDGRDMIIIRMPKDFPPFPQKLKFREPQREERICLVTTNFQTKSMSSMVSDTSCTFPSGDGIFWKHWIQTKDGQCGSPLVSTRDGFIVGIHSASNFTNTNNYFTSVPKNFMELLTNQEAQQWVSGWRLNADSVLWGGHKVFMVKPEEPFQPVKEATQL

Variants of: B1
Test: raw area under fraction-flipped curve 0-4 h after induction (AUC4h, not background-subtracted), DNA-recorder readout of cleavage of the substrate (dimensionless); higher = more cleavage of the substrate by the protease variant
Settings: temperature: 34 °C; time window: 0-4 h after rhamnose induction
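Also: Bxb1 expression induced with 0.2% (w/v) L-rhamnose at OD600 near 0.5, cultures sampled hourly, flipped fraction per protease–substrate barcode pair counted by paired-end Illumina sequencing.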

| Variant | area with substrate HNLYFQS | area with substrate KNLYFQS | area with substrate NNLYFQS | area with substrate PNLYFQS | area with substrate VNLYFQS | area with substrate WNLYFQS | area with substrate YNLYFQS | area with substrate LNLYFQS | area with substrate MNLYFQS | area with substrate RNLYFQS | area with substrate SNLYFQS | area with substrate TNLYFQS | area with substrate INLYFQS |
| --- | --- | --- | --- | --- | --- | --- | --- | --- | --- | --- | --- | --- | --- |
| MGESLFKGPRDYNPISSSICHLTNESDGHTTSLYGIGFGPFIITNKHLFRRNNGTLVVQSLHGVFKVKDTTTLQQHLVDGRDMIIIRMPKDFPPFPQKLKFREPQREERICLVTTNFQTKSMSSMVSDTSCTFPSGDGIFKKHWIQTKDGQCGSPLVSTRDGFIVGIHSASNFTNTNNYFTSVPKNFMELLTNQEAQQWVSGWRLNADSVLWGGHKVFMVKPEEPFQPVKEATQL [W141K] | 0.0508 | 0.0555 | 0.0265 | 0.0573 | 0.0427 | 0.0498 | 0.0545 | – | – | – | – | – | – |
| MGESLFKGPRDYNPISSSICHLTNESDGHTTSLYGIGFGPFIITNKHLFRRNNGTLVVQSLHGVFKVKDTTTLQQHLVDGRDMIIIRMPKDFPPFPQKLKFREPQREERICLVTTNFQTKSMSSMVSDTSCTFPSGDGIFWKEWIQTKDGQCGSPLVSTRDGFIVGIHSASNFTNTNNYFTSVPKNFMELLTNQEAQQWVSGWRLNADSVLWGGHKVFMVKPEEPFQPVKEATQL [H143E] | 0.0484 | 0.0567 | – | 0.0606 | 0.0493 | 0.0518 | 0.0292 | 0.0409 | 0.0575 | 0.0461 | 0.041 | 0.041 | – |
| MGESLFKGPRDYNPISSSICHLTNESDGHTTSLYGIGFGPFIITNKHLFRRNNGTLVVQSLHGVFKVKDTTTLQQHLVDGRDMIIIRMPKDFPPFPQKLKFREPQREERICLVTTNFQTKSMSSMVSDTSCTFPSGDGIFWKHWIQTKFGQCGSPLVSTRDGFIVGIHSASNFTNTNNYFTSVPKNFMELLTNQEAQQWVSGWRLNADSVLWGGHKVFMVKPEEPFQPVKEATQL [D149F] | 0.0599 | 0.0497 | 0.0896 | 0.0574 | 0.069 | 0.0612 | 0.0544 | 0.0543 | 0.0689 | – | 0.0539 | 0.0177 | – |
| MGESLFKGPRDYNPISSSICHLTNESDGHTTSLYGIGFGPFIITNKHLFRRNNGTLVVQSLHGVFKVKDTTTLQQHLVDGRDMIIIRMPKDFPPFPQKLKFREPQREERICLVTTNFQTKSMSSMVSDTSCTFPSGDGIFWKHWIQTKDGQCGSPLTSTRDGFIVGIHSASNFTNTNNYFTSVPKNFMELLTNQEAQQWVSGWRLNADSVLWGGHKVFMVKPEEPFQPVKEATQL [V157T] | 0.0643 | – | – | – | – | 0.0613 | – | – | – | – | – | 0.0978 | – |
| MGESLFKGPRDYNPISSSICHLTNESDGHTTSLYGIGFGPFIITNKHLFRRNNGTLVVQSLHGVFKVKDTTTLQQHLVDGRDMIIIRMPKDFPPFPQKLKFREPQREERICLVTTNFQTKSMSSMVSDTSCTFPSGDGIFWKHWIQTKDGQCGSPLVSTRDGFIVGIHHASNFTNTNNYFTSVPKNFMELLTNQEAQQWVSGWRLNADSVLWGGHKVFMVKPEEPFQPVKEATQL [S169H] | 0.0555 | – | 0.0657 | – | 0.0582 | 0.0573 | – | – | 0.0577 | 0.105 | 0.0456 | 0.0547 | – |
| MGESLFKGPRDYNPISSSICHLTNESDGHTTSLYGIGFGPFIITNKHLFRRNNGTLVVQSLHGVFKVKDTTTLQQHLVDGRDMIIIRMPKDFPPFPQKLKFREPQREERICLVTTNFQTKSMSSMVSDTSCTFPSGDGIFWKHWIQTKDGQCGSPLVSTRDGFIVGIHSNSNFTNTNNYFTSVPKNFMELLTNQEAQQWVSGWRLNADSVLWGGHKVFMVKPEEPFQPVKEATQL [A170N] | 0.0626 | – | – | – | – | 0.0217 | – | – | – | – | – | 0.0527 | – |
| MGESLFKGPRDYNPISSSICHLTNESDGHTTSLYGIGFGPFIITNKHLFRRNNGTLVVQSLHGVFKVKDTTTLQQHLVDGRDMIIIRMPKDFPPFPQKLKFREPQREERICLVTTNFQTKSMSSMVSDTSCTFPSGDGIFWKHWIQTKDGQCGSPLVSTRDGFIVGIHSASNFTNTNNPFTSVPKNFMELLTNQEAQQWVSGWRLNADSVLWGGHKVFMVKPEEPFQPVKEATQL [Y179P] | 0.0597 | 0.0497 | 0.0549 | – | – | 0.0469 | 0.0524 | 0.0459 | – | – | 0.0623 | 0.0519 | – |
| MGESLFKGPRDYNPISSSICHLTNESDGHTTSLYGIGFGPFIITNKHLFRRNNGTLVVQSLHGVFKVKDTTTLQQHLVDGRDMIIIRMPKDFPPFPQKLKFREPQREERICLVTTNFQTKSMSSMVSDTSCTFPSGDGIFWKHWIQTKDGQCGSPLVSTRDGFIVGIHSASNFTNTNNYTTSVPKNFMELLTNQEAQQWVSGWRLNADSVLWGGHKVFMVKPEEPFQPVKEATQL [F180T] | 0.0631 | 0.0494 | 0.0531 | 0.0543 | 0.0556 | – | – | 0.0719 | – | – | 0.0525 | 0.0532 | – |
| MGESLFKGPRDYNPISSSICHLTNESDGHTTSLYGIGFGPFIITNKHLFRRNNGTLVVQSLHGVFKVKDTTTLQQHLVDGRDMIIIRMPKDFPPFPQKLKFREPQREERICLVTTNFQTKSMSSMVSDTSCTFPSGDGIFWKHWIQTKDGQCGSPLVSTRDGFIVGIHSASNFTNTNNYFTSVPKNVMELLTNQEAQQWVSGWRLNADSVLWGGHKVFMVKPEEPFQPVKEATQL [F187V] | 0.0755 | 0.0481 | – | 0.0907 | 0.0531 | – | 0.0736 | 0.0737 | 0.0687 | – | 0.0623 | 0.0693 | 0.0578 |
| MGESLFKGPRDYNPISSSICHLTNESDGHTTSLYGIGFGPFIITNKHLFRRNNGTLVVQSLHGVFKVKDTTTLQQHLVDGRDMIIIRMPKDFPPFPQKLKFREPQREERICLVTTNFQTKSMSSMVSDTSCTFPSGDGIFWKHWIQTKDGQCGSPLVSTRDGFIVGIHSASNFTNTNNYFTSVPKNFMELWTNQEAQQWVSGWRLNADSVLWGGHKVFMVKPEEPFQPVKEATQL [L191W] | 0.0474 | – | 0.0567 | – | – | – | 0.0508 | 0.0583 | 0.0747 | – | – | 0.0556 | 0.0608 |
